From the RNAGym collection of RNA variant scans (doi:10.1073/pnas.2313332121)
This sample is rich in variants without activity.

B1: TPR 5TU (parent)
chain: GGAUCUUCUCGAUCUAACAAAAAAGACAAAUCUGCCACAAAGCUUGAGAGCAUCUUCGGAUGCAGAGGCGGCAGCCUUCGGUGGCGCGAUAGCGCCAACGUUCUCAACUAUGACACGCAAAACGCGUGCUCCGUUGAAUGGAGUUUAUCAUG

Variants of: B1
Assay: polymerase ribozyme fitness, log enrichment relative to wild type (log ratio); higher = more active; in vitro selection for triplet polymerase activity
Procedure, shortened: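 A heterodimeric triplet polymerase ribozyme had each of its subunits mutagenized by PCR into a library, which was transcribed. One round of in vitro selection, done in triplicate, annealed each library with a biotinylated primer, its partner subunit and triplets, then incubated it frozen at −7 °C before gel excision of extended constructs, streptavidin-bead capture and RT-PCR. Fitness is the logarithm of genotype enrichment relative to wild-type enrichment, based on Illumina sequencing of inputs and outputs and inverse-variance-weighted replicate averages. A base-2 logarithm is used, and genotypes were kept only with ≥10 input reads and ≥1 read per output.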

Polymerase ribozyme fitness (log ratio), ≤ -4.2:
GGAUCUUCUCGAUCUAACAAAAAAGACAAAUCUGCCACAAAGCUUGAGAGCAUGUUUGGAUGCAGAGGCGGCAGCCUUCGGUGGCACGAUAGCGCCAAUGUUCUGAACUAUGACACGCAAAACGCGUGCUCCGUUGAAAGGAGUUUAUCAUG [C54G C57U G86A C99U C105G U139A]
GGAUCUUCUCGAUCUAACAAAAAAGACAAAUCUGCCACAAAGCUUGAGAGCAUAUUCGGAUGCAGAGGCGGCAGCCUUCGGUGGCGCGAUAGCGCCAACGUUCUCAACUAUGACACGCCAAGCGCGUGCUCCGUUGAAUUGAGUUUAUCAUG [C54A A119C A122G G140U]
GGAUCUUCUCGAUCUAACAAAAAAGACAAAUCUGCCACAAAGCUUGAGAGCAUAUUCCGAUGCAGAGGCAGCAGCCUUCGGUGGCGCGAUAGUGCCAACGUUCUCAACUAUGACACGCAAAACGCGUGCUCCGUUGAAUGGAGUUUACCAUG [C54A G58C G70A C93U U148C]
GGAUCUUCUCGAUCUAACAAAAAAGACAAAUCUGCCACAAAGCUUGAGAGCAUAUUCGGAUGCAGAGGCGGCAGCCUUCGGUGGCGCUAUAGCGCCAACGUUCUCAACUAUGACACGCAAAACGCGUGCUCCGUUGAAUGGAGUUCAUCAUG [C54A G88U U146C]
GGAUCUUCUCGAUCUAACAAAAAAGACAAAUCUGCCACAAAGCUUGAGAGCAUGUUCGGAUGGAGAGGCGGAACCCUUCGGUGGCGAGAUAGCGCCAACGUUCUCAACUAUGACAAGCAAAACGCGUGCUCCGUUGAAUGGAGUUUAUCAUG [C54G C63G C72A G74C C87A C116A]
GGAUCUUCUCGAUCUAACAAAAAAGACAAAUCUGCCACAAAGCUUGAGAGCAUAUUCGGAUGCAGAGGCGGCAGCCUUCGGUGGCGCGAUACCGACAACGUUCUCAACUAUGACACGCAAAACGGGUGCUCCGUUGAAUGGAGUGUAUCAUG [C54A G92C C95A C125G U145G]
GGAUCUUCUCGAUCUAACAAAAAAGACAAAUCUGCCACAAAGCUUGAGAGCAUGUUGGGAUGCAGAGGCGGGAGCCUUCGGUGGCGCGAUAUCGCCAACGUUCUCAACUAUGACACGCAAAACGCGUGCUCCGUUGAAUGGAGUUUAUCAUG [C54G C57G C72G G92U]
GGAUCUUCUCGAUCUAACAAAAAAGACAAAUCUGCCACAAAGCUUGAGAGCAGCUUCGGAUGCAGAGGCGGCAGCCUUCGGUGGCGAGAUAGCUCCAACGUUCUCUACUAUGACACGCAAAGCGCGUGCUCCGUUGUAUGGAGUUUAUCAUG [U53G C87A G94U A106U A122G A137U]
GGAUCUUCUCGAUCUAACAAAAAAGACAAAUCUGCCACAAAGCUUGAGAGCAUAUUCGGAUGCAGAGUCGGCAGCCUUCGGUGGAGCGAUAGCGCCAACGUUCUCAACUAUGACACGCAAAACGCGUGCACCGUUGAAUGGAGUUUAUCAUG [C54A G68U C85A U130A]
GGAUCUUCUCGAUCUAACAAAAAAGACAAAUCUGCCACAAAGCUUGAGAGCAUAUUCAGAUGCAGAGGAGACAGCCUUCGGUGGCGCGAUAGCGCCGACGUUGUCAACUAUGACACGCAAAACGCGUGCUCCGUUGAAUGGAGUUUAUCAUG [C54A G58A C69A G71A A97G C103G]
GGAUCUUCUCGAUCUAACAAAAAAGACAAAUCUGCCACAAAGCUUGAGAGCAUAUUCGGAUGCAGAGGCGGCAGCCUUCGGUGGGGCGAUAGCGCCAACGUUCUCAAUUAUGACACGCAAAACGCGUGCUCCGUUGAAUGGAGUUUAUCAUG [C54A C85G C108U]
GGAUCUUCUCGAUCUAACAAAAAAGACAAAUCUGCCACAAAGCUUGAGAGCAUAAUCGGAUGCAGAGGCGGCAGCCUUCGGUGGCGCGAUAGCGCUAACGUUCAUAACUAUGACACGCAAAACGCGUGCUCCGUUGAAUGGAGUUUAUCAUG [C54A U55A C96U U104A C105U]
GGAUCUUCUCGAUCUAACAAAAAAGACAAAUCUGCCACAAAGCUUGAGAGCAUAUUCGGAUGCAGAGGCGGCAGCCUUCGGUGGCGCGAUAACGCCAACGUUCUCAGCGAUGACACGCAAAACGCGUGCUCCAUGGAAUGGAGUUUAUCAUG [C54A G92A A107G U109G G133A U135G]
GGAUCUUCUCGAUCUAACAAAAAAGACAAAUCUGCCACAAAGCUUGAGAGCAUAAUCGGAUGCAGAGGCGGCAGCCGUCGGUUGCGCGAUAGCGCCAACGUUCUCAACUAUGACACGCAAAACGCGUGCUCCGUUGAAUGGAGUUUAUGAUG [C54A U55A U77G G83U C149G]
GGAUCUUCUCGAUCUAACAAAAAAGACAAAUCUGCCACAAAGCUUGAGAGCAUAUUCGGAUGCAGAGACGGCAGCCUUCAGUUGCGCGAUAGGGCCAACGUUCUCAACUAUGAAACGCAAAACGCGUGCUCCGUUGAAUCCAGUAUAUCAUG [C54A G68A G80A G83U C93G C114A G140C G141C U145A]
GGAUCUUCUCGAUCUAACAAAAAAGACAAAUCUGCCACAAAGCUUGAGAGCAGCUUCGGAUGCAGAUGCGGCAGCCUUCGGUGGCGCGAUAGAGCCAACGUUCUCAAUUAUGACUCGCAAAACGCGUGCUCCGUUGAAUGGCGCUUAUUAUG [U53G G67U C93A C108U A115U A142C U144C C149U]
GGAUCUUCUCGAUCUAACAAAAAAGACAAAUCUGCCACAAAGCUUGAGAGCAUAUUCGGAUGCAGGGGCGGCAACCUUCGGUGGCGCGAUAGCGCCAACGUUCUCAACUAUGACGCGCAAAACGCGUGCUCCGUUGAAUGGAGUUUAUCAUG [C54A A66G G74A A115G]
GGAUCUUCUCGAUCUAACAAAAAAGACAAAUCUGCCACAAAGCUUGAGAGCAUAUUCGGAUGCAGAGGCGGCAGCCUUCGGUGGCGCGAUAGCGCCAACGUUCUCAAAUAUGACACGCAAAACGCGUGCUCUGUUGAAUGGAGGUUAUCAUG [C54A C108A C132U U144G]
GGAUCUUCUCGAUCUAACAAAAAAGACAAAUCUGCCACAAAGCUUGAGAGCAUAAUCGGAUGCAGAGGCGGCAGCCUUCGGUGGCUCGAUAGCGCCAACGUUCUCAACUAUGACACGCAAAACGCGUGCUACGUUGAAUGGAGUUUAUCAUG [C54A U55A G86U C131A]
GGAUCUUCUCGAUCUAACAAAAAAGACAAAUCUGCCACAAAGCUUGAGAGCAGCAUCGGAUGCAGAGGCGGCAGCCUUCGGUGGCGCGAUAGCGCCAACGUUCUCAAGUAUGACACGCAAAACUCGUGAUCCGUUGAAUGGAGUGUAACAUG [U53G U55A C108G G124U C129A U145G U148A]
GGAUCUUCUCGAUCUAACAAAAAAGACAAAUCUGCCACAAAGCUUGAGAGCAGCUUCGGAUGCAGAGGCGGCAACCUUCGGUGGCGCGAUAGCGCUAACGUUCUCAACUAUGACACGCAAAACGCGUGCUCCGUUGAAUGGAGUUUAUCAUG [U53G G74A C96U]
GGAUCUUCUCGAUCUAACAAAAAAGACAAAUCUGCCACAAAGCUUGAGAGCAGCUUCGGAUGCAGAGGCGGCAGCCUUCGGUGGCACGAUAGCGCGAACGUUCUCAACUAUGACACGCACAACGCGUGCUCCGUCGAAUGGAGUUUAUCAUG [U53G G86A C96G A120C U135C]
GGAUCUUCUCGAUCUAACAAAAAAGACAAAUCUGCCACAAAGCUUGAGAGCAUAUUCGGAUGCAGAGGCGGCAGCCUUCGGUGGCGCGAUAGCGCCAACGUUCUCAACUAUGACACGCAAAACGCGUGCUCCGUUGUAUGGAGUUUAUCAUG [C54A A137U]
GGAUCUUCUCGAUCUAACAAAAAAGACAAAUCUGCCACAAAGCUUGAGAGCAUAUUCGGAUGCAGAGGCGGCAGCCUCCGGUGGCGCGAUAGCGCUAACGUUCUCAUCUAUGACACGCAAAACGCGUGCUCCGUUGAAUGGAGUUUAUGAUG [C54A U78C C96U A107U C149G]
GGAUCUUCUCGAUCUAACAAAAAAGACAAAUCUGCCACAAAGCUUGAGAGCAUAGUCCGAUGCAGAGGCGGCAGCCUUCGGUGGCGCGAUAACGCCUACGUUCUCAACUAUGACACGCAAAACGGGUUCUCCGUCGAGAGGAGUGUAUCAUG [C54A U55G G58C G92A A97U C125G G128U U135C A138G U139A U145G]
GGAUCUUCUCGAUCUAACAAAAAAGACAAAUCUGCCACAAAGCUUGAGAGCAUAUUCGGAUGCAGAGGCGGCAGCCUUCGGUGGCGCGAUCGCGCCAACGUUCUCAACUAUGACACGCAAAACGCGUGCUCCGUUGAAUGGAGUUUAUCAUG [C54A A91C]
GGAUCUUCUCGAUCUAACAAAAAAGACAAAUCUGCCACAAAGCUUGAGAGCAGCUUCGGAUGCAGAGACGGCAGCCUUCGGUGGCGCGAUUGCGCCAACGUUCUCAACUAUGACACGCAAAACGCGUGCUCCGUUGAAUGGAGUUUAUCCUG [U53G G68A A91U A150C]
GGAUCUUCUCGAUCUAACAAAAAAGACAAAUCUGCCACAAAGCUUGAGAGCAUAUUCGGAUGCAAAGGCGCCAGCCUUCGGUGGCGAGAUAGCGCCAACGUUCUCAACUAUGACACGCAAAACGCGUGCUCCGUUAAAUGGAGUUUAUCAUG [C54A G65A G71C C87A G136A]
GGAUCUUCUCGAUCUAACAAAAAAGACAAAUCUGCCACAAAGCUUGAGAGCAUAUUCGGAUGCAGAGGCGGCAGCCUUCGGUGGCGCAAUAGCGCCAACGUUCUCAACUAUGACACGCAAAACGCGUGCUCCGUUGAAUGGAGUUUAUCAUG [C54A G88A]
GGAUCUUCUCGAUCUAACAAAAAAGACAAAUCUGCCACAAAGCUUGAGAGCAUGUUCGGAUGACGAAGCGGCAGCCUUCGGUGGCGCGAUAGCGCCAACGUUCUCAACUAUGACACGCAAAACGCGUGCUCCGUUGAAUGGAGUUUAUCAUG [C54G C63A A64C G67A]
GGAUCUUCUCGAUCUAACAAAAAAGACAAAUCUGCCACAAAGCUUGAGAGCAUAUUCGGAUGCAGAGGCGGCAGCCUUCGGUGGCGCCAUAGCGCCAACGUUUUCAACUAUGACACGCAAAACGCGUGAUCCGUUGAAUGCAGUUUAUCAUG [C54A G88C C103U C129A G141C]
GGAUCUUCUCGAUCUAACAAAAAAGACAAAUCUGCCACAAAGCUUGAGAGCAUAUUCGGAUGCAGAGGCGGCAGCCUUCGGUGGCGCCAUAGCGCCAACGUUCUCAACUAUGACACGCAAAACGCGUGCUCCGUUGAAAGGAGUUUACCAUG [C54A G88C U139A U148C]
GGAUCUUCUCGAUCUAACAAAAAAGACAAAUCUGCCACAAAGCUUGAGAGCAUAUUCGGAUGCAGAGGCGGCAGCCUUCGGUCGCGCGAUAGCGCCAACGUUCGCAACUAUGACACGCAAAACGCGUGCUCCGUUGAAUGGAGUUUAUCAUG [C54A G83C U104G]
GGAUCUUCUCGAUCUAACAAAAAAGACAAAUCUGCCACAAAGCUUGAGAGCAGCUUCGGAUGCAGAGGCGGCAGCCUUCCGUGGCGCGAUAGCGGCAACGUUCUCAACUAUGACACGCAAAACGCGUGCUCCGUUGAAUGGAGUUUAUCAUG [U53G G80C C95G]
GGAUCUUCUCGAUCUAACAAAAAAGACAAAUCUGCCACAAAGCUUGAGAGCAUAUUCGGAUGCCGAGGCGGCAGCCUUGGGUGGCGCGAUGGCGCCAACGUUUUCAACUAUGACACGCAAAACGCGUGCUCCGUUGAAUGGAGUUUAGCAUG [C54A A64C C79G A91G C103U U148G]
GGAUCUUCUCGAUCUAACAAAAAAGACAAAUCUGCCACAAAGCUUGAGAGCAUAUACGGAUGCAGAGGCGGCAGCCUUCGGUGGCGCGAUAACGCCAACGUUCUCAACUAUGUCACGCAAAACGAGUGCUCCGUUGAAUGGAGCUUAUCAUG [C54A U56A G92A A113U C125A U144C]
GGAUCUUCUCGAUCUAACAAAAAAGACAAAUCUGCCACAAAGCUUGAGAGCAUAUUCGGAUGCAGAGGCGGCGGCCUUCGGUGGCGCGAUCGCGCCAACGUUCUCAACUAUGACACGCAAAACGCGUGCUCCGUUGAAUGGAGUUUAUCAUG [C54A A73G A91C]
GGAUCUUCUCGAUCUAACAAAAAAGACAAAUCUGCCACAAAGCUUGAGAGCAUAUUCGGCUGCAGAGGCGGCCGCCUUCGGUGGCACGCUAGCGCCAACGUUCUCAACUAUGACACGCGAAACGCUUGCUCCGUUGAAUGGAGUUUAUCAUG [C54A A60C A73C G86A A89C A119G G126U]
